{"source": "PubChem BioAssay AID1460", "about": "(National Center for Advancing Translational Sciences (NCATS), 2008)", "note": "In all, about 270,000 compounds went through this assay and about 5,800 (2.1%) were called active. Inconclusive results, whose numbers are uncertain, are shown with a selection of clear calls. The call rests on the fitted dose curve; in most records, active means well fitted inhibition curve with a large enough effect; inconclusive means small, poorly fitted or top-dose-only effect; inactive means flat fitted curve, though single readings scatter. Potencies of inconclusive entries are doubtful fits and often do not repeat. On the % scale 0 is the no-effect control and ±100 the full control effect; potency means the concentration at half of the fitted maximal effect; tags describe the fitted curve by direction and shape."}
{"target": "Microtubule-associated protein tau (Homo sapiens) (UniProt P10636)", "sequence (P10636 whole entry, looked up, the tested form may be a part)": "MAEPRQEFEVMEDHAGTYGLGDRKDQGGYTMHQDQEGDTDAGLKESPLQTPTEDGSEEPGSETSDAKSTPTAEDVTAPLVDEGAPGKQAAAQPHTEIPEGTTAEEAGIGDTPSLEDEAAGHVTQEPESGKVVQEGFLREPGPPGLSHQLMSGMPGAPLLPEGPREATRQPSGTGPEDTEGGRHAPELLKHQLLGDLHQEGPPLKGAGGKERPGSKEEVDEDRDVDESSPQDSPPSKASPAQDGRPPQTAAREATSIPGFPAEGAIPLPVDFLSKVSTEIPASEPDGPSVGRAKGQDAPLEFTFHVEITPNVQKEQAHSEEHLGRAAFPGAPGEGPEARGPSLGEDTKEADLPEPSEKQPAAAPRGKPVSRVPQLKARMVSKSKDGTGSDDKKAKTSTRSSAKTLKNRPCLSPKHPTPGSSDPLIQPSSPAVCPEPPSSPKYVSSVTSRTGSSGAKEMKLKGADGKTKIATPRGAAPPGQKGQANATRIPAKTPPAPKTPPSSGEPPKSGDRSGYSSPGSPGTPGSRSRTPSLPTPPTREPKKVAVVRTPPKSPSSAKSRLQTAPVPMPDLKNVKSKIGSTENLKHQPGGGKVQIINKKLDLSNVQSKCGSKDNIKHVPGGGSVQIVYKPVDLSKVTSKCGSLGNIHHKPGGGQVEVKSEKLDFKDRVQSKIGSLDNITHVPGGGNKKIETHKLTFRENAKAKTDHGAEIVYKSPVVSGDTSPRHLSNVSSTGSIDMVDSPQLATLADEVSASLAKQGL", "test": "qHTS for Inhibitors of Tau Fibril Formation, Thioflavin T Binding; further: nearly all actives have a fitted effect of over 55% in size", "conditions": "recombinant tau K18 P301L (four-repeat tau fragment), heparin-induced fibrillization, ThT fluorescence; series mostly up to 57.4 µM", "method_in_brief": "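Recombinant human tau K18 fragment […] carrying P301L, 15 uM unlabeled plus 0.24 uM Alexa 594-labeled, was fibrillized with 20 uM heparin in 100 mM sodium acetate pH 7 for 6 hr at 37 C; 30 uM ThT fluorescence read after 1 hr.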"}
{"smiles": "OC(CNCCc1ccc(C(F)(F)F)cc1)COc1cccc2ccccc12", "note": "(configuration not stated)", "Potency": "inconclusive: 28.2 µM [inhibitor, single point]"}
{"smiles": "CC(NC(=O)Nc1ccc(O)cc1)(C(F)(F)F)C(F)(F)F", "Potency": "active: 22.4 µM"}
{"smiles": "C/C(=N\\NC(=S)NCc1ccccc1)c1cccs1", "Potency": "inactive"}
{"smiles": "CCOc1c(Br)cc(/C=N\\NC(=O)c2ccccc2)cc1OC", "Potency": "inconclusive: 14.1 µM [inhibitor, partial curve]"}
{"smiles": "O=C(CN1CCCCC1)Nc1ccc(N2CCCCCC2)cc1", "Potency": "inconclusive: 25.1 µM [inhibitor, single point]"}
{"smiles": "Cc1onc(-c2ccccc2Cl)c1C(=O)NCc1ccco1", "Potency": "inconclusive: 28.2 µM [inhibitor, partial curve]"}
{"smiles": "O=C(Nc1ccc(F)cc1F)c1csc(-c2cccs2)n1", "Potency": "inactive"}
{"smiles": "COc1ccc2ccccc2c1/C=N/NC(=O)c1cccc(Br)c1", "Potency": "inconclusive: 3.98 µM [inhibitor, partial curve]"}
{"smiles": "C/C(=N\\NC(=O)c1c(Cl)cnn1C)c1cccc(NC(=O)COc2ccccc2)c1", "Potency": "inconclusive: 2.24 µM [inhibitor, full curve]"}
{"smiles": "Cc1ccccc1OCC(=O)Nc1ccc(-c2nc3cc(Cl)cc(Cl)c3o2)cc1", "Potency": "inconclusive: 0.447 µM [inhibitor, full curve, poor fit]"}
{"smiles": "COc1ccc(N2CCN(C(=O)CSc3nnc(C)c(=O)[nH]3)CC2)cc1", "Potency": "inconclusive: 22.4 µM [inhibitor, partial curve]"}
{"smiles": "CCCSc1ncc(Cl)c(C(=O)N(Cc2ccccc2)c2ccc(OC)cc2)n1", "Potency": "inactive"}
{"smiles": "O=C(O)/C=C/C(=O)Nc1ccc2nccnc2c1", "Potency": "inconclusive: 20 µM [inhibitor, single point]"}
{"smiles": "Oc1cc2ccccc2cc1-c1n[nH]c(=S)n1Cc1ccco1", "Potency": "inconclusive: 31.6 µM [inhibitor, partial curve, poor fit]"}
{"smiles": "CSc1nnc2c(n1)OC=Nc1ccccc1-2", "Potency": "inconclusive: 28.2 µM [inhibitor, single point]"}
{"smiles": "CCOC(=O)CSc1nc2ccc(NC(=O)COc3ccc(F)cc3)cc2s1", "Potency": "inconclusive: 0.891 µM [inhibitor, full curve, poor fit]"}
{"smiles": "O=C(CN1CCN(c2ccccc2)CC1)Nc1scc2c1c(=O)oc1ccccc12", "Potency": "inconclusive: 1 µM [inhibitor, partial curve, poor fit]"}
{"smiles": "Cc1[nH]n(-c2cccc3ccccc23)c(=O)c1/C=N/NC(=O)c1cccc([N+](=O)[O-])c1", "Potency": "inconclusive: 25.1 µM [inhibitor, partial curve]"}
{"smiles": "Cc1nc2ccc(NC(=O)Nc3ccnc4cccnc34)cc2o1", "Potency": "inconclusive: 0.631 µM [inhibitor, full curve, poor fit]"}
{"smiles": "Oc1ccc(N2CCN(C(c3ccccn3)c3nnnn3C3CCCC3)CC2)cc1", "note": "(configuration not stated)", "Potency": "inconclusive: 22.4 µM [inhibitor, single point]"}
{"smiles": "CC(C)(C)C1CCc2c(sc(NC(=O)c3ccco3)c2C(=O)Nc2ccccc2Cl)C1", "note": "(configuration not stated)", "Potency": "inactive"}
{"smiles": "CCN(CC)c1ccc(/C=C(\\C#N)C(=O)c2ccc(Br)cc2)cc1", "Potency": "inconclusive: 25.1 µM [inhibitor, partial curve]"}
{"smiles": "COc1ccc(N2CCN(CCCNC(=O)c3cnn(-c4ccc(C)cc4)c3-n3cccc3)CC2)cc1", "Potency": "inconclusive: 39.8 µM [inhibitor, single point]"}
{"smiles": "COc1ccc(C(=O)O)cc1S(=O)(=O)NCCc1ccccn1", "Potency": "inconclusive: 5.01 µM [activator, single point]"}
{"smiles": "CN1C(=O)Cc2cc(S(=O)(=O)NCc3ccc(Cl)cc3)ccc21", "Potency": "inactive"}
{"smiles": "Cc1nnsc1C(=O)Oc1ccc(Cl)cc1", "Potency": "inconclusive: 25.1 µM [inhibitor, partial curve, poor fit]"}
{"smiles": "O=C1C(=C(c2ccccc2)c2ccccc2)Nc2ccccc21", "Potency": "active: 15.8 µM"}
{"smiles": "Cc1ccc(-c2ccc(SCC(=O)Nc3nonc3C)nn2)cc1", "Potency": "inconclusive: 31.6 µM [inhibitor, single point]"}
{"smiles": "CSc1ccccc1NC(=O)Nc1ccc(F)c(Cl)c1", "Potency": "inconclusive: 7.08 µM [inhibitor, full curve]"}
{"smiles": "Cc1ccc(C)c2c1[nH]c1ccc([N+](=O)[O-])cc12", "Potency": "inconclusive: 12.6 µM [inhibitor, partial curve]"}
{"smiles": "Cc1cc(C(F)F)nn1CC(=O)NCc1ccco1", "Potency": "inconclusive: 22.4 µM [inhibitor, single point]"}
{"smiles": "Cc1oc(-c2ccc(Cl)cc2)cc1-c1nn2c(-c3ccco3)nnc2s1", "Potency": "inconclusive: 15.8 µM [inhibitor, partial curve]"}
{"smiles": "CCn1c(-c2cc(-c3cccc(OC)c3)nc3ccccc23)n[nH]c1=S", "Potency": "inactive"}
{"smiles": "COc1ccc(CC(=S)N2CCOCC2)cc1", "Potency": "inconclusive: 44.7 µM [inhibitor, single point]"}
{"smiles": "CCOc1ccc(NC(=O)N(Cc2cn(CC)c3ccccc23)C2CCCCCC2)cc1", "Potency": "inconclusive: 35.5 µM [inhibitor, single point]"}
{"smiles": "Cc1cc2c(cc1NS(=O)(=O)c1ccc(NC(=O)CC(C)C)cc1)n(C)c(=O)c(=O)n2C", "Potency": "inactive"}
{"smiles": "CO/N=C(\\c1nonc1N)N1CCN(c2ccc(Cl)cc2[N+](=O)[O-])CC1", "Potency": "inconclusive: 25.1 µM [inhibitor, partial curve]"}
{"smiles": "COC(=O)C1=C(C(=O)OC)[C@@H]2N(C)c3ccccc3[C@@]23C[C@@H](C(=O)OC)N(C(=O)c2ccc(Br)cc2)C3=N1", "Potency": "inactive"}
{"smiles": "Cc1cccc(C)c1NC(=O)COC(=O)C1Cc2ccccc2CN1C(=O)c1ccccc1", "note": "(configuration not stated)", "Potency": "inactive"}
{"smiles": "NC(=O)c1ccsc1NC(=O)c1ccco1", "Potency": "inconclusive: 39.8 µM [inhibitor, single point]"}
{"smiles": "CCN(CC)CCCNC(=O)c1ccc(N2CCCCC2)c(NS(=O)(=O)c2ccc(C)cc2)c1", "Potency": "inconclusive: 25.1 µM [inhibitor, single point]"}
{"smiles": "CCOc1ccc(/C=C2/SC(=S)N(n3c(C)ccc3C)C2=O)cc1", "Potency": "inconclusive: 17.8 µM [inhibitor, partial curve]"}
{"smiles": "CCCNC(=O)OC[C@@H]1O[C@H](CCO/N=C(\\C)CCN2CCCCc3nc(C)c(C)cc32)C=C[C@@H]1Oc1ccc(OC)cc1", "activity, negative = inhibition": "inactive: -3.82% [at 11.5 µM]"}
{"smiles": "COc1ccc(NC(=O)c2ncn(-c3ccccc3)n2)cc1Cl", "Potency": "inconclusive: 0.562 µM [inhibitor, full curve]"}
{"smiles": "CCOC(=O)c1c(-c2ccccc2)oc2ccc(O)c(CN3CCOCC3)c12", "Potency": "inconclusive: 17.8 µM [inhibitor, single point]"}
{"smiles": "Cc1c(C(=O)OCC2CCCCC2)[nH]c2c1C(=O)CC(c1ccccc1Cl)C2", "note": "(configuration not stated)", "Potency": "inactive"}
{"smiles": "O=C(O)c1ccccc1N/N=C\\c1ccnc2ccccc12", "Potency": "active: 5.01 µM"}
{"smiles": "Cc1ccc(Cn2c(SCC(=O)N/N=C/c3ccc(C)o3)nc3ccccc32)cc1", "Potency": "inconclusive: 14.1 µM [inhibitor, partial curve, poor fit]"}
{"smiles": "COc1ccc(N2CCN(C(CNC(=O)c3ccc4c(c3)OCO4)c3ccco3)CC2)cc1", "note": "(configuration not stated)", "Potency": "inconclusive: 20 µM [inhibitor, partial curve]"}
{"smiles": "COc1ccc(NC(=S)NNc2ccc([N+](=O)[O-])cc2S(=O)(=O)Nc2ccc(C)cc2C)cc1", "Potency": "active: 31.6 µM"}
{"smiles": "O=C(Nc1ccc(Cl)cc1)Nc1nc(-c2sccc2Br)cs1", "Potency": "inconclusive: 5.62 µM [activator, full curve]"}
{"smiles": "CCC(Sc1nnc2c(n1)[nH]c1ccccc12)C(=O)Nc1ccccc1OC", "note": "(configuration not stated)", "Potency": "inactive"}
{"smiles": "CCc1ccccc1S(=O)(=O)Cc1ccc(C(=O)NCCc2ccc(C)cc2)o1", "Potency": "inconclusive: 39.8 µM [inhibitor, single point]"}
{"smiles": "O=C(Nc1ccc([N+](=O)[O-])cc1)c1ccccc1F", "Potency": "inconclusive: 15.8 µM [inhibitor, partial curve]"}
{"smiles": "Cc1c(Cl)cccc1N1C(N)=C(C#N)C(c2cc(CN3CCOCC3)cs2)C2=C1CCCC2=O", "note": "(configuration not stated)", "Potency": "inactive"}
{"smiles": "CCOC1=C/C(=C/c2c(N)n3nc(S(=O)(=O)CC)sc3nc2=O)C=CC1=O", "Potency": "inconclusive: 22.4 µM [inhibitor, partial curve, poor fit]"}
{"smiles": "CCOc1ccc(S(=O)(=O)Nc2cc(Sc3ncn[nH]3)c3oc(=O)sc3c2)cc1", "Potency": "inconclusive: 28.2 µM [inhibitor, partial curve]"}
{"smiles": "N#Cc1c(NC(=O)CCC(=O)O)sc2c1CCCCC2", "Potency": "active: 20 µM"}
{"smiles": "COC(=O)CCC(=O)OC1(C)C(=O)C=C2C=C(C3CC3)N(c3ccc(OC)cc3)C=C2C1=O", "note": "(configuration not stated)", "Potency": "inconclusive: 8.91 µM [inhibitor, single point]"}
{"smiles": "Nc1c(C(=O)C2CC2)sc2nc3c(cc12)CCC3", "Potency": "inconclusive: 10 µM [inhibitor, partial curve, poor fit]"}
{"smiles": "O=C1NN(c2ccccc2)C(=O)/C1=C\\c1cccc(OC(=O)c2cccs2)c1", "Potency": "active: 15.8 µM"}
{"smiles": "CCOC(=O)N1CCc2c(sc(NCc3ccc(N(C)C)cc3)c2C(=O)Nc2ccc(OC)cc2)C1", "Potency": "inconclusive: 8.91 µM [inhibitor, partial curve]"}
{"smiles": "COc1ccc2cc(C#N)c(SCC(=O)NNC(=O)Cc3ccccc3)nc2c1", "Potency": "inconclusive: 15.8 µM [inhibitor, partial curve]"}
{"smiles": "COc1ccc2oc(=O)c(-c3nc(C)cs3)cc2c1", "Potency": "inconclusive: 3.55 µM [inhibitor, partial curve, poor fit]"}
{"smiles": "COc1cc(/C=C/C(=O)OCc2cn3cc(Cl)ccc3n2)ccc1O", "Potency": "inconclusive: 2.82 µM [inhibitor, partial curve]"}
{"smiles": "CCc1cccc(NC(=O)CCc2nc3cccnc3n2-c2ccccc2)c1", "Potency": "inactive"}
{"smiles": "O=c1c(C(c2ccc(O)cc2)c2c(O)nc3n(c2=O)CCS3)c(O)nc2n1CCS2", "Potency": "inconclusive: 2 µM [inhibitor, full curve]"}
